B1: LINE1-mini (parent)
chain: GGCAGAGCUCAACACAGCGUGGCAAAGUGGCUGUGGCUAGACUGCC

Read counts are not given, so values of variants with three or more changes are uncertain.

Variants of B1 are the subject of the data set. Nature of the data set: self-cleavage, relative activity (ratio to wild type); higher = more cleavage; in vitro, sequencing; the parent is a self-cleaving ribozyme.
G5A A14G A26G: the self-cleavage is 0.05.

Regarding G5A C13U C37G C42A, the self-cleavage came out at 0.04.

For G5A A16G G19U G27U G30U G44A, the self-cleavage is 0.02.

Turning to G5A A6G C15U G21C G40U A41G, the self-cleavage worked out at 0.07.

Regarding G5A A6C C13A G22C A26G, the self-cleavage came out at 0.04.

Turning to A4U G27A U34A U38A U43C G44A, the self-cleavage was 0.04.

Consider A4U U9G C15A A16G, for which the self-cleavage worked out at 0.2.

As to G5A C18G A25G, the self-cleavage was found to be 0.2.

With G5A C18A C31A, the self-cleavage came out at 0.06.

In the case of G5A C18A G33A, the self-cleavage is 0.01.

As for A4U U32C G33A U34G G35A, the self-cleavage was 0.04.

As for G5A C15U A26U, the self-cleavage worked out at 0.06.

Turning to G5A C8A G33U G35A, the self-cleavage was determined as 0.07.

A4U G21U G40C: the self-cleavage is 0.2.

On to G5A C15A G29U, for which the self-cleavage amounted to 0.08.

With G5A A16C G22A A24G C31A G35A, the self-cleavage is 0.

A4U G22U C31A A41U: the self-cleavage was determined as 0.06.

As to G5A A6G G29C G44C, the self-cleavage is 0.

For A4U G27C G29U, the self-cleavage was 0.02.

As for G5A C13U A39U, the self-cleavage is 0.51.

Consider G5A A12C C18G G29U G35C, for which the self-cleavage amounted to 0.03.

Turning to G5A A14G G22C A24C C42A, the self-cleavage came out at 0.

With G5A C8A U20C, the self-cleavage is 0.2.

As for A4U G19C U20G G35U, the self-cleavage came to 0.06.

For G5A A11C U34A, the self-cleavage came out at 0.

For the variant G5A C18A G30U, the self-cleavage was 0.05.

For the variant G5A A25U G36C, the self-cleavage was 0.02.

Turning to G5A C10G G22A, the self-cleavage came to 0.03.

Consider A4U G21C A39C G40U, for which the self-cleavage stood at 0.06.

Take A4U G30U G44U: the self-cleavage was 0.1.

Take G5A A12C A24G G40C U43G: the self-cleavage turned out to be 0.01.

In the case of A4U G19C G21C, the self-cleavage was determined as 0.16.

Regarding G5A A14U G19A G36C, the self-cleavage was 0.03.

As to A4U U9A A14C A24C G29U U32G, the self-cleavage was determined as 0.05.

Consider G5A C10G A24C C37A, for which the self-cleavage turned out to be 0.02.

With G5A A39G C46A, the self-cleavage was 0.07.

Regarding G5A C10A C15A A41U, the self-cleavage was 0.05.

For the variant G5A A12G C37U A39C, the self-cleavage came to 0.04.

On to A4U G33C C37A, for which the self-cleavage was 0.06.

Regarding A4U U32A A41U, the self-cleavage was determined as 0.08.

Take A4U U9C A24C G29U U32A A41C: the self-cleavage was found to be 0.01.

For A4U G21U G29A C37G, the self-cleavage worked out at 0.02.

Consider G5A C10U G33A, for which the self-cleavage worked out at 0.03.

Regarding A4U G35U C46U, the self-cleavage was determined as 0.07.

G5A C8A C15U: the self-cleavage came to 1.25.

Turning to G5A C13U C15A, the self-cleavage worked out at 0.01.

For G5A C15A U28A U38C, the self-cleavage is 0.03.

G5A C13U C37A: the self-cleavage came out at 0.74.

Consider G5A A24C C45A, for which the self-cleavage came to 0.05.

In the case of G5A C8A A11U G44C, the self-cleavage came out at 0.03.

Turning to G5A C15A C23G G36C, the self-cleavage came to 0.02.

On to G5A A11G G17C C18U U20G, for which the self-cleavage came to 0.03.

Turning to G5A C8G A24C G29A G35A U43A, the self-cleavage was found to be 0.03.

For the variant A4U G36U G44U, the self-cleavage amounted to 0.17.

Turning to G5A C8A U9A U43C, the self-cleavage is 1.93.

Regarding G5A A14C G36A, the self-cleavage was found to be 0.08.

G5A A6G G22C G27A U38A G40A: the self-cleavage is 0.02.

Take G5A A6G G17C A25G A39C: the self-cleavage stood at 0.06.

Take G5A A12U C23A U43C: the self-cleavage worked out at 0.01.

For the variant G5A A11G C42A, the self-cleavage was 0.01.

Turning to A4U U32C C42A, the self-cleavage is 0.06.

As for G5A A39C C45U, the self-cleavage was 0.07.

For the variant A4U G19C A26U, the self-cleavage worked out at 0.07.

As to G5A A11U G21U, the self-cleavage worked out at 0.01.

For G5A C10G U20C, the self-cleavage turned out to be 0.04.

Take G5A C10A A14G G19C: the self-cleavage was determined as 0.02.

Regarding G5A A11G U20C, the self-cleavage was found to be 0.03.

Turning to G5A A16G A41U, the self-cleavage came to 0.03.

Consider G5A A24U G36A, for which the self-cleavage is 0.15.

On to A4U G22U G30U G33U, for which the self-cleavage was determined as 0.14.

On to G5A C15G G33U G36C, for which the self-cleavage was 0.02.

Regarding G5A C8A C10A, the self-cleavage stood at 0.02.

As to G5A C18A C23U C46G, the self-cleavage was 0.03.

On to G5A C10G A14G C46A, for which the self-cleavage was 0.01.

As for G5A A24C G36C, the self-cleavage stood at 0.03.

In the case of A4U U20A A26G C46U, the self-cleavage is 0.02.

In the case of G5A A6G U20C U43A, the self-cleavage is 0.01.

With G5A A16U G17C G40A, the self-cleavage stood at 0.02.

As for G5A A12U C23U G30C C31G U34A, the self-cleavage was determined as 0.01.

Take G5A C8A G30U: the self-cleavage was 0.34.

Take G5A A25C G36A C37U: the self-cleavage is 0.27.

Turning to G5A A26G C31A, the self-cleavage was determined as 0.02.

Turning to G5A A24G U32A A41U, the self-cleavage is 0.06.

A4U U9G A24G: the self-cleavage came out at 0.27.

On to G5A C13A G21C, for which the self-cleavage was 0.03.

As for G5A C13G C15U G30C, the self-cleavage came out at 0.06.

Consider G5A A6U C8G G27U, for which the self-cleavage is 0.06.

Turning to G5A A26G C31A A41G, the self-cleavage was 0.02.

As for G5A A6U A12U G40A, the self-cleavage came to 0.11.

G5A A6G U20G G36A: the self-cleavage amounted to 1.88.

Take G5A A25C U32G C42U: the self-cleavage is 0.08.

In the case of G5A A6C G36C A39U, the self-cleavage turned out to be 0.04.

For the variant A4U G35U C37A, the self-cleavage was 0.07.

As to G5A A26C C46U, the self-cleavage was 0.12.

Consider G5A C10U A16U C23A G29C, for which the self-cleavage stood at 0.02.

On to G5A A41U C46U, for which the self-cleavage was 0.06.

On to A4U U32A C42A U43C, for which the self-cleavage was 0.05.

In the case of G5A A12G G21A G30C, the self-cleavage worked out at 0.01.

As for A4U G21C A26U, the self-cleavage turned out to be 0.09.

For the variant A4U G30C A41C, the self-cleavage amounted to 0.04.

For the variant G5A A16U C23U G33A, the self-cleavage worked out at 0.04.

Consider A4U G21U G29A, for which the self-cleavage worked out at 0.04.

Take G5A C15U U32A G33U C46U: the self-cleavage stood at 0.07.

On to A4U U20G G27A, for which the self-cleavage stood at 0.08.

As for A4U U9A A12U A14C C15G U38A, the self-cleavage worked out at 0.23.

Consider G5A C8G G17U G19U G40C C42U, for which the self-cleavage was found to be 0.02.

Take G5A A26C G44U: the self-cleavage was found to be 0.1.

For G5A C8G G17U G21C C46A, the self-cleavage stood at 0.03.

Take G5A C8G C13A C23G: the self-cleavage was determined as 0.01.

For the variant G5A A6C A11G G35U, the self-cleavage stood at 0.04.

On to A4U U9G G21U, for which the self-cleavage amounted to 0.11.

For A4U U9C A11G U20C G33A C46G, the self-cleavage amounted to 0.01.

Regarding G5A C10U C13A G27U G35U G40C G44U, the self-cleavage was 0.03.

In the case of G5A A12G A14U G35U U38G, the self-cleavage was 0.01.

With A4U G27A G36U, the self-cleavage came to 0.02.

Consider A4U G27A G36A, for which the self-cleavage was determined as 0.09.

Consider G5A A14C A25C, for which the self-cleavage is 0.06.

Turning to G5A C15A C18A C31U, the self-cleavage was 0.04.

With G5A C10A U34A G40A, the self-cleavage came out at 0.03.

Turning to G5A A14G A26U U32G, the self-cleavage came to 0.05.

Regarding A4U G22C A24U, the self-cleavage was 0.09.

Take G5A C18A A39U C46U: the self-cleavage was found to be 0.02.

As for G5A C8A G22U C31A, the self-cleavage worked out at 0.5.

Take G5A C10A A41C: the self-cleavage is 0.07.

A4U U9G U28C U32C G35C: the self-cleavage is 0.03.

As to G5A C8U G22U G36A, the self-cleavage was 0.48.

On to A4U G21C G36C, for which the self-cleavage is 0.14.

G5A A11U C15A U34A: the self-cleavage stood at 0.02.

Turning to G5A C10U U20A U32C G40A U43A, the self-cleavage is 0.03.

As for G5A C13U C15G A24U, the self-cleavage was 0.02.

Turning to A4U U9A C42G C45U, the self-cleavage came to 0.17.

In the case of G5A C13G G35C, the self-cleavage stood at 0.07.

Consider G5A A11G C13A U38G, for which the self-cleavage was 0.03.

In the case of G5A A16G G33A, the self-cleavage came to 0.02.

Turning to A4U U20A C31U C46U, the self-cleavage is 0.01.

On to G5A C8U C31U A39U, for which the self-cleavage was determined as 0.05.

Take A4U U28G G40C: the self-cleavage stood at 0.04.

With G5A C8G G19U G27C A41U C46A, the self-cleavage stood at 0.03.

For the variant G5A C8A A12G C13U G17A A24C C46G, the self-cleavage amounted to 0.15.

On to G5A A6U C15A G36A, for which the self-cleavage came out at 0.07.

Consider G5A A12G C31A, for which the self-cleavage was determined as 0.11.

In the case of G5A A11C C31A G36C A41U C46G, the self-cleavage was 0.01.

Turning to G5A C8G U38A, the self-cleavage came out at 0.22.

Take A4U G27U G40A: the self-cleavage turned out to be 0.11.

G5A C15A G19U G36U C37U: the self-cleavage came out at 0.1.

For G5A A6C C15U C31U, the self-cleavage turned out to be 0.01.

Take G5A C13A A25U U32A: the self-cleavage stood at 0.04.

In the case of G5A A11U A12G G19U A25C A26C G36U G40U A41G, the self-cleavage was 0.01.

For A4U U9C A14C C18A U20C G22A G35A C37U, the self-cleavage was determined as 0.01.

In the case of G5A A12U G40U, the self-cleavage was determined as 0.03.

In the case of G5A C8G G36U, the self-cleavage came out at 0.04.

In the case of G5A A24C G36A G40C A41G C46U, the self-cleavage was determined as 0.

Turning to G5A C13U A26G G40A G44A C45A, the self-cleavage was 0.06.

For A4U G22C U38A G40A, the self-cleavage is 0.09.

With A4U G40U C45G, the self-cleavage amounted to 0.8.

As for A4U G22U U28C, the self-cleavage is 0.2.

As to G5A C10G U34G C46U, the self-cleavage was found to be 0.01.

Turning to G5A A6G U28G, the self-cleavage was 0.02.

As for G5A C10A G22U A24U C45U C46U, the self-cleavage turned out to be 0.04.

For A4U G22U U38C, the self-cleavage was 0.22.

As for G5A A6G U20C G21C, the self-cleavage worked out at 0.01.

For the variant A4U U32A C45U, the self-cleavage is 0.02.

Turning to G5A C10G C23A A24C U28A U34G A41U, the self-cleavage worked out at 0.02.

As to A4U G22A A25U, the self-cleavage stood at 0.14.

G5A A6U A14G A39G: the self-cleavage is 0.07.

Turning to G5A A11U G22A U38G G44C, the self-cleavage came out at 0.01.

For the variant G5A C10U C15U, the self-cleavage was 0.16.

Source of the values: the RNAGym collection of RNA variant scans (doi:10.7554/elife.90254).
